Consider 120 sequences from the supplement of paper PMC10126150.

Sequences with one replicate were seen in a single cluster, so their values are uncertain.

The series relates to ATP. The experiment in a line: switch fluorescence ratio, 500 uM ATP over buffer (Cy3 cluster intensity, sum of 5 cycles each) (fold (ratio)); higher = stronger signal-on switching upon ATP binding; sequences stand for … in TCGTCGGCAGCGTCAGATGTGTATAAGAGACAGTTTTTTTTTTTTTTTTTTTTTTTTT…TC. Particulars: aptamer strand: ATP DNA aptamer (quencher-CACCTGGGGGAGTATTGCGGAGGAAGG + anchor), 100 nM annealed; ATP concentration: 500 uM; one replicate. The essentials: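 The fluorescence ratio divides summed target-cycle Cy3 intensity by summed buffer-cycle Cy3 intensity for each cluster and is averaged per switch-domain sequence. Cy3-labelled switching-strand clusters on a modified Illumina MiSeq flow-cell were annealed to 100 nM quencher-labelled ATP aptamer, then imaged in selection buffer and again after 15 min with 500 uM ATP at 22 °C. Five such cycles were run, with NaOH stripping and re-annealing between them, and clusters outside 100-1000 RFU were excluded.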
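Further: ATP exposure 15 min at 22 °C before imaging.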

With GGGGAAACG, the switch fluorescence ratio turned out to be 1. Under AGGGAAAGAA stands 0.944; under ATCCGTTTAA, 1.09; under TTGCTACCTA, 1.04.

Take GAGTTTGCGG: the switch fluorescence ratio amounted to 0.929. As to TCTACCCAGT, the switch fluorescence ratio stood at 1.1. Under GGCTTTGCA stands 0.94; under TATTCAGTGG, 1.02; under TAATACTAAG, 1.03. In the case of TGAAAACCCC it was 1.49. Under TGTTCATGAT stands 1.02. With GTGCACACT, the switch fluorescence ratio amounted to 1.06. Turning to ATTGGCAAGT, the switch fluorescence ratio stood at 1.02. Under TGGTCTCGAG stands 0.964. In the case of CTCCATCAAG it was 1.55; in that of TATTTCTGGC, 0.934. For GCCCCGCTAT, the switch fluorescence ratio turned out to be 2.61. Consider TAACGGCCTA, for which the switch fluorescence ratio was 1.01. For the sequence CCAGAATCGC, the switch fluorescence ratio was 1.04. Under GGAGACTGAG stands 1.03; under TTTGGCGCCA, 1. Under AGATCTTCGT stands 1.04; under CTCTTACCGC, 1.01; under GAGATCGCT, 1.02. Under TAATGGCCGG stands 1.01; under TCTGTTAGG, 0.969; under TCAGTGGTTT, 1.01. GACGTCACAG: the switch fluorescence ratio turned out to be 1.12. In the case of ATAAACTATG it was 0.987.

As for AAGTCCTTTG, the switch fluorescence ratio worked out at 1.01. In the case of TGGCCGCGGG it was 1.16; in that of GTGGTGTGGG, 1.02. In the case of CACGATTGA it was 0.998. In the case of CTAGGTATTC it was 1.02; in that of GACAGCGCAA, 3.05; in that of GGTCTCGGTG, 0.978. For the sequence ATCTTAGTCT, the switch fluorescence ratio was found to be 0.998.

For the sequence ACAATCGGGT, the switch fluorescence ratio is 0.963.

For AGGTTATATC, the switch fluorescence ratio came to 1.02.

Consider AGTGATTCG, for which the switch fluorescence ratio is 0.991. In the case of ACCCTTTCGA it was 1.19. As to CAGTTTATAT, the switch fluorescence ratio came out at 1.02. In the case of GGTGCACCGC it was 0.994; in that of CCTATAAGAC, 1.69; in that of GTATCACGCT, 1. Under CTTTGTTCT stands 1.02. In the case of TCAAGCCAAG it was 0.999; in that of TTCCCTAAGT, 1.

AGTACGCGAA: the switch fluorescence ratio amounted to 1.17.

On to CCTAATAATT, for which the switch fluorescence ratio was determined as 1. Under GGAGTGATAT stands 1.87; under GAGGACTGCT, 0.982.

For GGCGTTAGGC, the switch fluorescence ratio came to 1. On to CGACTGGCAT, for which the switch fluorescence ratio worked out at 1.86. In the case of GGGAAATG it was 1.06.

CGTTAAGGG: the switch fluorescence ratio amounted to 1.01. In the case of GCGCGGCGTG it was 0.962. In the case of TCGGTTCTAA it was 1.04; in that of CGATTGTGCT, 0.936. Under TACACACGGT stands 1.41; under AAAGAGGACA, 1.04. On to GGGTTAGGCA, for which the switch fluorescence ratio was 1.01. As to GAAACTAGGT, the switch fluorescence ratio was 1.03.

As for GAATGTTCCC, the switch fluorescence ratio was 1.01.

With TACCCGTATT, the switch fluorescence ratio came out at 1.02.

For the sequence GCTGTAACCG, the switch fluorescence ratio came out at 0.985. With TTTTTGGT, the switch fluorescence ratio was found to be 1.01. Under AGCTTGTGTA stands 0.975.

GGGTTGTCAG: the switch fluorescence ratio came out at 0.957. Under GCGAGCCAGC stands 0.945; under TTAGGTGTTC, 1.01; under CAAGACGGGG, 1.03. With TATGTTTTC, the switch fluorescence ratio was determined as 0.985.

In the case of TTCTCGGTCA, the switch fluorescence ratio is 1.02. Under TTGTGCCCGA stands 1.01; under GGTCACGGTG, 1.01; under GGCGCTAAGA, 0.987. In the case of ATTAATTAC it was 1.03; in that of GTATTTTGGT, 0.954; in that of TTAGGGGACC, 0.955. Under CTGAGCATAC stands 2.65. Consider AAGAGGTTAT, for which the switch fluorescence ratio was 1.02.

In the case of CGGCGCGTAT, the switch fluorescence ratio amounted to 1.02.

For the sequence AAGCGGCTCC, the switch fluorescence ratio was 1.31. Under TTGCCGAT stands 0.928. In the case of TAGCCGCGAC it was 1.81; in that of GCAGAAAGGG, 1.15. For the sequence AGGACTTACG, the switch fluorescence ratio was determined as 1.06. With GCGTTCGTGT, the switch fluorescence ratio was 1. In the case of AAACGTAGTG it was 1.08; in that of AGAAAAATTA, 0.99; in that of CACCTGTGCC, 1.04. Under ACTAAACTAT stands 1.11. Under ATAATTCTTT stands 1.03; under TTTGGTCCAT, 1.01; under CCTCGAATTT, 1.98. GCGGTGGTTC: the switch fluorescence ratio amounted to 1.03. In the case of GGCTAACCGG it was 1.01.

On to AATTTATCTC, for which the switch fluorescence ratio came out at 0.999. On to CAATACTTGT, for which the switch fluorescence ratio stood at 1.04. In the case of TCTGATGTCG it was 0.988; in that of GTGCGTTTGA, 1.03; in that of TAGCATGAAT, 1.02.

As to CCTTTGAGAG, the switch fluorescence ratio came to 0.989. Consider TTGCTGCTGG, for which the switch fluorescence ratio was 1.02. Under GAGGTGAAAC stands 0.99; under CATGACCACG, 0.927.

Consider AGGACGTTGT, for which the switch fluorescence ratio amounted to 0.993.

In the case of AAGGAGGTTC, the switch fluorescence ratio came out at 1. On to CCTAGAGTTA, for which the switch fluorescence ratio was found to be 1.04. Under TTTGACTTTG stands 1.04; under TTCTCTTCT, 0.974; under CTCGCAGGCA, 1.19.

As to TTTGCTATGC, the switch fluorescence ratio turned out to be 1.09. In the case of AGGCCTTATT it was 1.05; in that of TAATAGTGGA, 0.985; in that of GCCTCCGCGT, 4.61. Under GCGGCTTGGT stands 1; under TGGTAACCCC, 1.11; under GAGGGGACAA, 0.959.
